Among the data in article PMC9911399, “Two distinct binding modes provide the RNA-binding protein RbFox with extraordinary sequence specificity” are binding signal values, retold here.

Residue numbers refer to the chain shown, from its start. The list shows a part of the results.

The chains are these.
T1: RBFOX1 RRM RbFoxmut (Fox-RRM*) (Homo sapiens, UniProt Q9NWB1 109-208, R118D;E147R;N151S;E152T)
T1 sequence: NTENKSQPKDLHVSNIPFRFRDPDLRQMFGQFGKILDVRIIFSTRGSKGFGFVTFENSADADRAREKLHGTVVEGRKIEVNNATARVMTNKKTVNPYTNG

B1: AUACAGU (DNA:RNA)
RNA: GGGAGACCGGAAUUCAGAUUGUCCAUACAGUUUAAAUCCCGUCGUAGCCACCA
DNA 1: CAATCTGAATTCCGGTCTCCC
DNA 2: TGGTGGCTACGACGGGATT
B2: UCGGAUA (DNA:RNA)
RNA: B1 RNA with A25U, U26C, A27G, C28G, G30U, U31A
DNA 1: CAATCTGAATTCCGGTCTCCC
DNA 2: TGGTGGCTACGACGGGATT
B3: CUGACGG (DNA:RNA)
RNA: B1 RNA with A25C, A27G, C28A, A29C, U31G
DNA 1: CAATCTGAATTCCGGTCTCCC
DNA 2: TGGTGGCTACGACGGGATT
B4: AUUGUUU (DNA:RNA)
RNA: B1 RNA with A27U, C28G, A29U, G30U
DNA 1: CAATCTGAATTCCGGTCTCCC
DNA 2: TGGTGGCTACGACGGGATT
B5: GAGAGUG (DNA:RNA)
RNA: GGGAGACCGGAAUUCAGAUUGUCCGAGAGUGUUAAAUCCCGUCGUAGCCACCA
DNA 1: CAATCTGAATTCCGGTCTCCC
DNA 2: TGGTGGCTACGACGGGATT
B6: GGCGUAA (DNA:RNA)
RNA: B5 RNA with A26G, G27C, A28G, G29U, U30A, G31A
DNA 1: CAATCTGAATTCCGGTCTCCC
DNA 2: TGGTGGCTACGACGGGATT
B7: UGAUACG (DNA:RNA)
RNA: B1 RNA with A25U, U26G, C28U, G30C, U31G
DNA 1: CAATCTGAATTCCGGTCTCCC
DNA 2: TGGTGGCTACGACGGGATT
B8: CUCUUGG (DNA:RNA)
RNA: B1 RNA with A25C, A27C, C28U, A29U, U31G
DNA 1: CAATCTGAATTCCGGTCTCCC
DNA 2: TGGTGGCTACGACGGGATT
B9: GUGGAGC (DNA:RNA)
RNA: B1 RNA with A25G, A27G, C28G, U31C
DNA 1: CAATCTGAATTCCGGTCTCCC
DNA 2: TGGTGGCTACGACGGGATT
B10: GUAGGGC (DNA:RNA)
RNA: B1 RNA with A25G, C28G, A29G, U31C
DNA 1: CAATCTGAATTCCGGTCTCCC
DNA 2: TGGTGGCTACGACGGGATT
B11: CACUUUA (DNA:RNA)
RNA: B5 RNA with G25C, G27C, A28U, G29U, G31A
DNA 1: CAATCTGAATTCCGGTCTCCC
DNA 2: TGGTGGCTACGACGGGATT
B12: CGCUGAU (DNA:RNA)
RNA: B1 RNA with A25C, U26G, A27C, C28U, A29G, G30A
DNA 1: CAATCTGAATTCCGGTCTCCC
DNA 2: TGGTGGCTACGACGGGATT
B13: UACGAGG (DNA:RNA)
RNA: B1 RNA with A25U, U26A, A27C, C28G, U31G
DNA 1: CAATCTGAATTCCGGTCTCCC
DNA 2: TGGTGGCTACGACGGGATT
B14: GCCUUAG (DNA:RNA)
RNA: B5 RNA with A26C, G27C, A28U, G29U, U30A
DNA 1: CAATCTGAATTCCGGTCTCCC
DNA 2: TGGTGGCTACGACGGGATT
B15: CUUCCGC (DNA:RNA)
RNA: B1 RNA with A25C, A27U, A29C, U31C
DNA 1: CAATCTGAATTCCGGTCTCCC
DNA 2: TGGTGGCTACGACGGGATT
B16: GAAGACG (DNA:RNA)
RNA: B5 RNA with G27A, A28G, G29A, U30C
DNA 1: CAATCTGAATTCCGGTCTCCC
DNA 2: TGGTGGCTACGACGGGATT
B17: GACGGAG (DNA:RNA)
RNA: B5 RNA with G27C, A28G, U30A
DNA 1: CAATCTGAATTCCGGTCTCCC
DNA 2: TGGTGGCTACGACGGGATT
B18: GACUGGC (DNA:RNA)
RNA: B5 RNA with G27C, A28U, U30G, G31C
DNA 1: CAATCTGAATTCCGGTCTCCC
DNA 2: TGGTGGCTACGACGGGATT
B19: UUCUCCA (DNA:RNA)
RNA: B1 RNA with A25U, A27C, C28U, A29C, G30C, U31A
DNA 1: CAATCTGAATTCCGGTCTCCC
DNA 2: TGGTGGCTACGACGGGATT
B20: UUUAAUA (DNA:RNA)
RNA: B1 RNA with A25U, A27U, C28A, G30U, U31A
DNA 1: CAATCTGAATTCCGGTCTCCC
DNA 2: TGGTGGCTACGACGGGATT

This assay concerns the target T1, RBFOX1 RRM RbFoxmut (Fox-RRM*). As to the kind of experiment: EMSA; HiTS-Eq, 1 nM pool, 10 min; buffer printed only for the single-RNA assays: 10 mM Tris pH 7.5, 150 mM NaCl, 3.4 mM EDTA, 0.001% NP-40, 30 C. To be noted: tags: His6 N-terminal (pET28a); label: 5' 32P. In a few lines: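 A pool of RNA with 7 randomized nucleotides, 5′-radiolabelled and with DNA-annealed flanks, was equilibrated at 1 nM for 10 min in 50 µL with purified RbFox RRM, wild type or mutant, across increasing protein concentrations. Free RNA was separated by 8% native PAGE, excised, reverse-transcribed, barcoded by PCR and sequenced. Relative association constants were obtained from read-count changes of each RNA species versus the control reaction and normalised to the cognate motif.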
On to B1, for which the binding signal is 0.0795 KA relative to UGCAUGU.

As to B2, the binding signal was 0.0727 KA relative to UGCAUGU.

On to B3, for which the binding signal was 0.073 KA relative to UGCAUGU.

As for B4, the binding signal was 0.134 KA relative to UGCAUGU.

In the case of B5, the binding signal is 0.221 KA relative to UGCAUGU.

Take B6: the binding signal was 0.0907 KA relative to UGCAUGU.

Consider B7, for which the binding signal is 0.159 KA relative to UGCAUGU.

With B8, the binding signal is 0.089 KA relative to UGCAUGU.

As to B9, the binding signal is 0.134 KA relative to UGCAUGU.

On to B10, for which the binding signal is 0.0527 KA relative to UGCAUGU.

With B11, the binding signal is 0.113 KA relative to UGCAUGU.

Take B12: the binding signal was 0.106 KA relative to UGCAUGU.

In the case of B13, the binding signal is 0.0882 KA relative to UGCAUGU.

In the case of B14, the binding signal is 0.126 KA relative to UGCAUGU.

B15: the binding signal is 0.0603 KA relative to UGCAUGU.

For B16, the binding signal is 0.0656 KA relative to UGCAUGU.

B17: the binding signal is 0.0864 KA relative to UGCAUGU.

For the molecule B18, the binding signal was 0.2 KA relative to UGCAUGU.

As for B19, the binding signal is 0.0808 KA relative to UGCAUGU.

Turning to B20, the binding signal is 0.115 KA relative to UGCAUGU.
